Values joined by “and” are separate entries in the source; they are usually repeats but may differ in a detail not shown here. Equal entries are not always repeated. Hit rate of the full screen: of about 340,000 compounds, about 6,900 (2%) were called active. Cut-off read from the data, not from the text of the source: active = inhibition above about 30%; inactive = below that, where a call was filed. The entries are a selection whose mix differs from that of the whole data set. Entries without a call were filed so in the source.
What follows are compounds tested against D(2) dopamine receptor (Homo sapiens) (UniProt P14416) (assay: HTS Assay for Allosteric Antagonists of the Human D2 Dopamine Receptor: Primary Screen for Antagonists). Conditions: HEK293 TREx D2 cells, calcium flux, dopamine EC80; at 10 µM; stronger effect = higher value.
UniProt P14416, sequence (P14416 whole entry, looked up): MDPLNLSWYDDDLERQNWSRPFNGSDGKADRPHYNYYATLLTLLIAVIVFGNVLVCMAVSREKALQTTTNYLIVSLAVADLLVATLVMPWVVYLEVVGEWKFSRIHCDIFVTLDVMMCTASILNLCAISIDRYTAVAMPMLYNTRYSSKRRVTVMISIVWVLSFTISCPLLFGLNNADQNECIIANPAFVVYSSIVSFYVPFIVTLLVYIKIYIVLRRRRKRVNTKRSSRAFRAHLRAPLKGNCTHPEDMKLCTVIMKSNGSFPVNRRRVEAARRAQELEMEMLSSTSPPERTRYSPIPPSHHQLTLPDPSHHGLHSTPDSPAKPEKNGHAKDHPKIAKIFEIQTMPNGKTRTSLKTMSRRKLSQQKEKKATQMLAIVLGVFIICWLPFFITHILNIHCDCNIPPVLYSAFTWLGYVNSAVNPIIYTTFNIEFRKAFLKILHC
Procedure, shortened: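 In this primary screen, negative modulation is detected by tracking calcium flux after an EC80 dopamine challenge in inducible HEK293 T-REx D2 cells preexposed to test compound for 180 s.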
With `COCCNC(=O)c1ccc(Cn2c(SCC(N)=O)nc3ccccc3c2=O)cc1` the inhibition was 1.97%. `Cn1c(SCc2ccc(F)cc2)nc2ccc(C(=O)NCc3cccc(Cl)c3)cc21` showed an inhibition of 11.7%. `CCOc1ccccc1C(=O)NCc1ccc2c(c1)CCN2C(=O)c1ccc(F)cc1` showed an inhibition of -4%. In the case of `Cc1ccc(N(Cc2cccs2)C(=O)c2ccc(OC(C)C)cc2)cc1`, the inhibition is reported as 14.4%. `COc1ccc2c(CNC3CCC(C)CC3)c(C(=O)O)n(Cc3ccc(F)cc3)c2c1` (stereo not given) showed an inhibition of -10.5%. Compound `COc1cccc(OCCSc2nc3ccccc3n2CC(=O)N2CCOCC2)c1` has an inhibition of 15.4%. `COc1ccccc1NC(=O)c1cc2c(-c3ccccc3)nn(-c3ccccc3)c2s1` showed an inhibition of 4.94%. In the case of `CCOc1ccccc1NC(=O)Cn1c(=O)nc(-c2ccccc2F)c2cc(Cl)ccc21`, the inhibition is reported as 3.8%. Compound `CCc1ccccc1NC(=O)Cn1c(=O)n(C(C)C)c(=O)c2oc3ccccc3c21` has an inhibition of -10.4%. Compound `COc1ccc(OCc2nc3ccccc3n2Cc2ccc(C(C)(C)C)cc2)cc1` has an inhibition of -28%. Compound `CCN(CC)C(=O)Cn1c(SCC(=O)Nc2ccc(F)cc2)nc2ccccc21` has an inhibition of -27.2%. `O=C(NCc1cccc(Br)c1)C1CCCCN1S(=O)(=O)c1ccc(F)cc1` (stereo not given) showed an inhibition of 10.6%. `Cc1ccc(-c2nnc(SCc3ccccc3)o2)cc1` showed an inhibition of -18.1%. `COc1cccc(NC(=O)C(C)n2c(=O)cc(C(F)(F)F)c3c(C)nn(C)c32)c1` (stereo not given) gave an inhibition of -5.62%. Work on `CCCNC(=O)CN1C(=O)COc2ccc(S(=O)(=O)N3CCCCCC3)cc21` yielded an inhibition of -0.659%. With `COc1cccc(OCC(O)CN2CCN(c3ccccc3)CC2)c1` (stereo not given) the inhibition was active: 85.9% and active: 82.8%. Compound `CCc1ccc(CNC(=O)CN2C(=O)C3CCCCN3c3ccc(C(=O)N4CCCC4)cc32)cc1` (stereo not given) has an inhibition of -13.4%. Work on `CC1CCN(S(=O)(=O)c2ccc3c(c2)N(C)C(=O)CC(=O)N3C)CC1` yielded an inhibition of 5.5%. `COc1ccc(Cl)cc1NC(=O)CN(C)C(=O)c1cc2c(F)cccc2s1` was tested, and the inhibition was active: 30.9%. Work on `CC(C)Oc1ccc(CNC(=O)C(C)n2ccc3cc(S(=O)(=O)N4CCCCCC4)ccc32)cc1` (stereo not given) yielded an inhibition of 0.651%. Work on `Cc1ccc(-n2c(=O)c3c(cnn3C)n(CC(=O)Nc3cccc(Cl)c3)c2=O)cc1` yielded an inhibition of 6.82%. `CCC(C(=O)NCCc1ccc(OC)c(OC)c1OC)n1nc(C)c2sc3ccccc3c2c1=O` (stereo not given) gave an inhibition of 20.8%. `Cc1ccc(CSc2nc3ccccc3c3nc(CCn4c(C)nc5ccccc54)nn23)cc1` showed an inhibition of 15.2%. Compound `CCOc1ccc(NC(=O)c2ccc3c(=O)n4c(nc3c2)CCCCC4)cc1` has an inhibition of 9.73%. With `Cc1ccc(C)c(N2CCN(CCCNC(=O)c3cnn(-c4cccc(Cl)c4)c3C3CCN(C(=O)OC(C)(C)C)CC3)CC2)c1` the inhibition was 17.7%. Compound `Cc1cc(C)cc(NC(=O)C(C)N2Cc3ccccc3C2=O)c1` (stereo not given) has an inhibition of -7.7%. `CCOC(=O)c1[nH]c2ccccc2c1NC(=O)c1ccc(C)c(C)c1` was tested, and the inhibition was 16.1%. `Cc1noc(Cn2c(=O)c3ccccc3n(CC(=O)Nc3cc(Cl)ccc3C)c2=O)n1` gave an inhibition of 7.51%. For `O=C(CSc1n[nH]c(-c2ccccc2)n1)N1CCN(c2ccc(F)cc2)CC1`, the inhibition was -3.87%. `Cc1ccc(-c2nnc(Nc3ccc(OCC(N)=O)cc3)c3ccccc23)cc1S(=O)(=O)NCC1CCCO1` (stereo not given) was tested, and the inhibition was 11.6%. `CCOC(=O)C1CCN(C(=O)Cc2c(F)cccc2Cl)CC1` was tested, and the inhibition was active: 30.8%. In the case of `O=C(CCn1cnc2onc(-c3ccc(F)cc3)c2c1=O)Nc1cccc(C(F)(F)F)c1`, the inhibition is reported as -1.21%. For `Cc1ccc(C(=O)NC2CCCCC2)cc1`, the inhibition was active: 61.5%. `CC(C)N1CCc2c(sc(NC(=O)CCS(=O)(=O)c3ccccc3)c2C#N)C1` was tested, and the inhibition was active: 33.7%. In the case of `Cc1ccn2c(Nc3ccccc3)c(-c3c[nH]c4ccccc34)nc2c1`, the inhibition is reported as -7.03%. In the case of `Cc1cc(C)cc(NC(=O)C(=O)NCCc2sc(-c3cccc(F)c3)nc2C)c1`, the inhibition is reported as -18.5%. `CC(=O)Nc1ccc(NC(=O)c2ccc3c(c2)CCN3S(=O)(=O)c2ccc(C)cc2)cc1` gave an inhibition of 11.8%. `COc1ccc(C)cc1NC(=O)N(C(C)C)C1CCN(C(C)=O)CC1` showed an inhibition of 15.2%. `Cc1ccc(-c2nnc3ccccc3c2C(=O)Nc2ccc(F)cc2)cc1` was tested, and the inhibition was 11.8%. Compound `COc1ccc(C(C)=O)cc1CSc1nc(Nc2ccc(F)c(F)c2)c2ccccc2n1` has an inhibition of -2.65%. `O=C(O)c1cc(-c2ccccc2)nn1Cc1ccccc1` showed an inhibition of 12.1%. `COc1ccccc1Nc1nn2c(=O)c3ccc(C(=O)NCCc4ccccc4)cc3nc2s1` showed an inhibition of 0.459%. Work on `Cc1ccc(N2CCN(c3nc4ccc(C(=O)c5ccccc5)cc4n4cnnc34)CC2)c(C)c1` yielded an inhibition of 2.31%. `Cc1oc2c(c1C(=O)NCc1ccccc1F)C1=NCCN1C=N2` showed an inhibition of -4.59%. In the case of `CC(C)Oc1ccc(CNC(=O)c2cnc3sc(N4CCCC4)nn3c2=O)cc1`, the inhibition is reported as 2.46%. Compound `CCOC(=O)NNC(=O)C1CCC(C)CC1` (stereo not given) has an inhibition of 6.98%. `CCOc1ccc(NC(=O)CC2C(=O)N(c3ccc(OC)cc3)C(=O)N2CCC2=CCCCC2)cc1` (stereo not given) gave an inhibition of -15.5%. `CC(=O)Nc1cccc(-c2nnc(SCC(=O)c3cc([N+](=O)[O-])ccc3Cl)o2)c1` gave an inhibition of 1.53%. Compound `CCOC(=O)c1cnc2ccc(C(=O)OC)cc2c1Nc1ccc(OCc2ccccc2Cl)cc1` has an inhibition of -10.3%. `COc1cccc(N2CCN(C(=O)c3ccc4nc(N5CCC(C)CC5)sc4c3)CC2)c1` showed an inhibition of -14.2%. Compound `CCN(CC)C(=O)Cn1ncc2c([nH]c3ccccc32)c1=O` has an inhibition of 5.92%. `Cc1ccccc1NC(=O)CSc1ccc(-c2ccccn2)nn1` gave an inhibition of 3.74%. In the case of `CCN1CCN(CCCNC(=O)Cn2nc(C)n3c(cc4c(OC)cccc43)c2=O)CC1`, the inhibition is reported as 12.1%. In the case of `COc1ccccc1-c1nn(CCC(=O)Nc2ccc(C)cc2)c2nc(C)cc(C)c12`, the inhibition is reported as 12.6%. With `CC1=C(C(N)=O)C(c2ccc(C)cc2)n2nc(SCc3ccccc3)nc2N1` (stereo not given) the inhibition was -8.16%. `COc1ccc(S(=O)(=O)Nc2cccc(-c3ccc(N4CCCC4)nn3)c2)cc1F` showed an inhibition of -10.1%. For `COc1cc(/C=C(/C#N)c2nc3ccccc3[nH]2)ccc1OCC(=O)Nc1ccccc1C(C)C`, the inhibition was active: 32%. Compound `Cc1nc(-c2ccc(S(=O)(=O)NCc3ccccc3Cl)cc2)co1` has an inhibition of 2.31%. With `CCCCN(CCCC)C(=O)c1c[nH]c2ccc(S(=O)(=O)Nc3cccc(Cl)c3C)cc2c1=O` the inhibition was 4.48%. For `Cc1ccc(C(=O)Nc2cnc3ccccn3c2=O)cc1`, the inhibition was -3.9%. Work on `CCCn1c2ccccc2c2cnn(CC(=O)N3CCCC(C(=O)OCC)C3)c(=O)c21` (stereo not given) yielded an inhibition of -13.1%. With `CCN1CCN(C(=O)Cn2ncc3c4ccccc4n(Cc4c(C)cc(C)cc4C)c3c2=O)CC1` the inhibition was -6.33%. `Cc1ccc(NC(=O)CCCn2nc(C)c3c(C)n(-c4ccccc4)nc3c2=O)c(Cl)c1` showed an inhibition of -7.32%. With `COC(=O)CN1C(C(=O)c2ccccc2)=C(OC(=O)c2ccccc2)c2ccccc2S1(=O)=O` the inhibition was -7.18%. With `CCCN1C(C(=O)c2ccccc2)=C(OC(=O)COc2ccc(C)cc2)c2ccccc2S1(=O)=O` the inhibition was -10.9%. Work on `COc1ccc(S(=O)(=O)N(CC(=O)Nc2ccc(Br)cc2)Cc2ccccc2)cc1` yielded an inhibition of -8.5%. `Cc1ccc(NC(=O)C2CCCN(S(=O)(=O)c3cccs3)C2)c(C)c1` (stereo not given) gave an inhibition of -1.09%. Work on `Cc1cc(O)c(CN2CCN(c3ccccc3)CC2)c2oc(=O)cc(C)c12` yielded an inhibition of 12.7%. `CCOC(=O)c1cc(NC(=O)c2ccc(F)cc2)c(=O)n2c1oc1ccc(Cl)cc12` was tested, and the inhibition was -7.55%. In the case of `CCCSCCCNC(=O)Cn1c(-c2cccs2)cc2ccccc21`, the inhibition is reported as 20.6%. `O=C(Nc1c2c(nn1-c1ccc(Cl)cc1)CS(=O)(=O)C2)c1ccc(Br)cc1` gave an inhibition of 27.1%. `CCc1cccc(NC(=O)C2CCN(S(=O)(=O)c3ccc4c(c3)NC(=O)CO4)CC2)c1` was tested, and the inhibition was active: 30.3%. `Cc1ccc(CN(C(=O)COc2ccc(F)cc2)C2CCS(=O)(=O)C2)o1` (stereo not given) showed an inhibition of 6.06%. `CCn1cc(S(=O)(=O)c2ccccc2)c(=O)c2cc(F)c(F)cc21` was tested, and the inhibition was -1.96%. For `Cc1ccc(-n2ncc(C(=O)NCCN3CCC(Cc4ccccc4)CC3)c2C2CCN(C(=O)OC(C)(C)C)CC2)cc1`, the inhibition was -7.49%. `O=C(NCC(c1cccnc1)N1CCc2ccccc21)c1ccc(Cl)cc1` (stereo not given) showed an inhibition of -14%. Work on `Cc1cc(NS(=O)(=O)c2ccc(NC(=O)COc3cc(C)c(Br)cc3C(C)C)cc2)no1` yielded an inhibition of 6.88%. For `CC(C)CCNC(=O)c1ccc2nc(Cc3ccccc3)oc2c1`, the inhibition was -24.4%. Work on `CCOc1ccc(N(CC)C(=O)Cn2cnc3sc(C)c(S(=O)(=O)N4CCN(c5ncccn5)CC4)c3c2=O)cc1` yielded an inhibition of 3.92%. With `COc1ccc(-c2cc(C(F)(F)F)nc(SCC(=O)NC(C)c3ccccc3)n2)cc1` (stereo not given) the inhibition was -8.13%. For `COc1cccc2cc(C(=O)Nc3ccc(C)cc3)c(=O)oc12`, the inhibition was 4.62%. Work on `Cc1ccc(CCNC(=O)c2ccc3c(c2)N(Cc2cccc(F)c2)C(=O)c2ccccc2S3)cc1` yielded an inhibition of 2.77%. `Cc1oc2c(CN3CCC(C)CC3)c(O)ccc2c(=O)c1-c1ccccc1` was tested, and the inhibition was active: 44.5%. With `O=C(NCc1nnc(SCC(=O)N2CCCC2)o1)c1c(F)cccc1F` the inhibition was active: 32.1%. Compound `Cc1ccc2c(=O)cc(C(=O)Nc3sc4c(c3C(=O)NCc3cccnc3)CCCC4)oc2c1` has an inhibition of 4.65%. Compound `CCOC(=O)c1ccc(NC(=O)C2=C(C)C(=O)OC23CCN(C(C)C)CC3)cc1` has an inhibition of 3.79%. In the case of `CCO[C@@H]1OC(C(=O)O)=C[C@H](c2csc3ccccc23)[C@H]1CCCO`, the inhibition is reported as active: 32%. Work on `O=C(CCNS(=O)(=O)c1ccc2c(c1)CCN2C(=O)C1CC1)Nc1ccc(OC(F)(F)F)cc1` yielded an inhibition of 10.7%. `COc1cccc(C(=O)Nc2ccc3nc(SCCOc4ccccc4)sc3c2)c1` was tested, and the inhibition was -16%. With `CCc1ccc2oc(-c3cc(NC(=O)c4cccs4)ccc3Cl)nc2c1` the inhibition was 14.5%. In the case of `Cc1c(C)c2c(OCC(=O)NCc3ccco3)cc3c(c2oc1=O)CCC(C)(C)O3`, the inhibition is reported as active: 30%. For `CCC(C)NC(=O)Cn1ccc2cc(S(=O)(=O)N3CCCCCC3)ccc21` (stereo not given), the inhibition was 11.4%. In the case of `Cc1cccc(N2CCN(CCCNc3ncnc4onc(-c5ccc(F)cc5)c34)CC2C)c1` (stereo not given), the inhibition is reported as 14.1%. `COc1ccc(C)cc1S(=O)(=O)N(C)CC(=O)NCc1ccncc1` was tested, and the inhibition was active: 32.8%. For `O=C(Nc1ccccc1C(=O)N1CCCCC1)c1nsc2ccccc12`, the inhibition was -9.67%.
Note: 0% is about no effect.
